{
  "source": "PubChem BioAssay AID2675",
  "about": "(National Center for Advancing Translational Sciences (NCATS), 2010)",
  "note": "Among all 280,000 compounds or so, about 100 (0.036%) were called active. Inconclusive means that the source gave no clear call. Such entries were picked first, then a sample of the others. Calls follow the shape of the dose curve; as a rule, active = well fitted inhibition curve with a large enough effect in the signal ratio, with a control signal flat (not every such curve was filed as active); inconclusive = small, poorly fitted or top-dose-only effect, or effect the other way, or a change in a side signal; inactive = no such curve, though single readings can be large or run the other way; the % refers to the signal ratio. Where the call is inconclusive, the potency comes from a doubtful curve fit. A note “side channel” means that the fit belongs to a control or component signal, not to the main read-out. % is scaled to controls: 0 for no effect and ±100 for the full control effect; potency is read from the fitted curve at half-maximal effect; tags tell the direction and shape of the fitted curve or compound fluorescence and quenching.",
  "data": [
    {"biological_target": "Muscleblind-like protein 1 (Homo sapiens) (UniProt Q9NR56)", "sequence (Q9NR56 whole entry, looked up)": "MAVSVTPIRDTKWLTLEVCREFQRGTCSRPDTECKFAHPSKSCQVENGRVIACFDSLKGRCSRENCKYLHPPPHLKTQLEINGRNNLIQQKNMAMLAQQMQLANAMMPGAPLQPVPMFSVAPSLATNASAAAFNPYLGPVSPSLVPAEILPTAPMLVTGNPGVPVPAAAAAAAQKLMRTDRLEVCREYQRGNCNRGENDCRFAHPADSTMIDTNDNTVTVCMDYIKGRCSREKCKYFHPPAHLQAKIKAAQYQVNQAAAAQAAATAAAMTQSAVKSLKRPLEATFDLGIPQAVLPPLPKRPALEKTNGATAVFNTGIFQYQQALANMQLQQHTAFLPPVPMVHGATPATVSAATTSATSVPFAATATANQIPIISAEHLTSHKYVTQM", "test": "qHTS Assay for Inhibitors of MBNL1-poly(CUG) RNA binding", "settings": "TR-FRET MBNL1-His/biotin-(CUG)12 binding, 665/545 ratio; activity change, negative = inhibition: at 57.5 µM (top of the series)", "in_short": "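MBNL1-His + Biotin-(CUG)12, cpd titration 92 nM–58 uM; Tb anti-His Ab 0.055 ng/ul, SA-XL665 5 nM (final); 60 min RT; ratiometric 665/545 nm, Ex 340 nm; normalized to buffer and full-complex controls.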", "values": [
      {"smiles": "CN(C)C(=S)Nc1ccc([N+](=O)[O-])cc1", "Potency": "inconclusive: 22.4 µM [quencher, side channel, partial curve]"},
      {"smiles": "COc1ccccc1OCC(=O)N/N=C1/C=C(C)CC1", "activity change, negative = inhibition": "inactive: -4.72%"},
      {"smiles": "CCC(=O)Oc1c(C(=O)CC)cc2c(C)cc(=O)oc2c1C", "activity change, negative = inhibition": "inactive: 0.402%"},
      {"smiles": "COCCn1c(=NC(=O)CCS(=O)(=O)c2ccccc2)sc2c(OC)ccc(OC)c21", "Potency": "inconclusive: 35.5 µM [fluorescent, side channel, single point]"},
      {"smiles": "CCOc1ccc(CNC(=O)C(=O)c2cn(CC(=O)N3CCOCC3)c3ccccc23)cc1OC", "Potency": "inconclusive: 22.4 µM [quencher, side channel, single point]"},
      {"smiles": "CC(C)C1=C2OC(N)=C(C#N)C(C#N)=C2C(C)CC1", "note": "(configuration not stated)", "Potency": "inconclusive: 11.2 µM [quencher, side channel, partial curve]"},
      {"smiles": "CCN(CC)S(=O)(=O)c1ccc(N2CCCC2)c(NC(=O)Cc2c(F)cccc2Cl)c1", "Potency": "inconclusive: 28.2 µM [quencher, side channel, single point]"},
      {"smiles": "O=C(NCCCn1ccnc1)c1ccc(Cl)cc1[N+](=O)[O-]", "Potency": "inconclusive: 17.8 µM [quencher, side channel, partial curve]"},
      {"smiles": "Cc1c(C(=O)O)oc2c1C(O)CC(C)(C)C2", "note": "(configuration not stated)", "Potency": "inconclusive: 39.8 µM [quencher, single point]"},
      {"smiles": "O=C(NCCCCC(NC(=O)c1ccc([N+](=O)[O-])cc1)C(=O)O)c1ccc([N+](=O)[O-])cc1", "note": "(configuration not stated)", "Potency": "inconclusive: 12.6 µM [quencher, partial curve]"},
      {"smiles": "O=C(CNC(=O)C1CCCCC1)OCC(=O)c1ccc(Br)cc1", "activity change, negative = inhibition": "inactive: -6.95%"},
      {"smiles": "Cc1ccc(S(=O)(=O)N2CCCN(S(=O)(=O)c3ccc4ccccc4c3)CC2)cc1", "activity change, negative = inhibition": "inactive: -1.09%"},
      {"smiles": "Cc1ccc(C(=O)N/C(=C\\c2ccc(-c3ccc([N+](=O)[O-])cc3)o2)C(=O)NC2CCS(=O)(=O)C2)cc1", "note": "(configuration not stated)", "Potency": "inconclusive: 14.1 µM [quencher, side channel, partial curve]"},
      {"smiles": "COc1ccc(-c2nn(CCC(=O)O)cc2/C=C2\\SC(N)=NC2=O)cc1", "Potency": "inconclusive: 12.6 µM [quencher, side channel, partial curve]"},
      {"smiles": "CCOC(=O)c1c(C)cc(C)n2c1nc1ccccc12", "Potency": "inconclusive: 17.8 µM [quencher, side channel, partial curve]"},
      {"smiles": "Cc1cccc(-n2c(N)cc(=O)nc2SCC(=O)Nc2ccccc2)c1", "activity change, negative = inhibition": "inactive: -1.23%"},
      {"smiles": "CCOc1ncccc1C(=O)OCC(=O)Nc1cc(S(=O)(=O)N2CCOCC2)ccc1C", "Potency": "inconclusive: 39.8 µM [fluorescent, side channel, partial curve, poor fit]"},
      {"smiles": "CCOC(=O)c1oc2c(O)c(O)ccc2c(=O)c1-c1nncn1-c1ccccc1", "Potency": "inconclusive: 35.5 µM [quencher, side channel, single point]"},
      {"smiles": "O=C(N/N=C/c1cccc([N+](=O)[O-])c1)c1cccs1", "Potency": "inconclusive: 3.55 µM [quencher, side channel, full curve]"},
      {"smiles": "CCN1CCN(CCCNC(=O)CNC(=O)c2nn(-c3ccc(OC)cc3)c(=O)c3ccccc23)CC1", "Potency": "inconclusive: 25.1 µM [quencher, side channel, single point]"},
      {"smiles": "CCOC(=O)c1c(C)oc2c1c(C=NCCO)c(O)c1ccccc12", "Potency": "inconclusive: 1.78 µM [quencher, full curve]"},
      {"smiles": "COc1ccc(OCC(=O)NNC(=S)NC(=O)c2ccc([N+](=O)[O-])cc2)cc1", "Potency": "inconclusive: 15.8 µM [quencher, side channel, partial curve]"},
      {"smiles": "CC(=O)N1N=C(c2ccccc2)OC1c1ccc([N+](=O)[O-])s1", "note": "(configuration not stated)", "Potency": "inconclusive: 6.31 µM [quencher, side channel, partial curve]"},
      {"smiles": "Cc1cc(C)cc(-n2nnc(C(=O)NCc3ccco3)c2N)c1", "Potency": "inconclusive: 79.4 µM [inhibitor, single point]"},
      {"smiles": "O=c1[nH]c(/C=C\\c2ccc(O)cc2)nc(O)c1[N+](=O)[O-]", "Potency": "inconclusive: 15.8 µM [quencher, side channel, partial curve]"},
      {"smiles": "COc1ccc(NC(=O)CSc2nc3ccccc3c(=O)n2Cc2cccs2)c(OC)c1", "Potency": "inconclusive: 28.2 µM [fluorescent, side channel, single point]"},
      {"smiles": "COc1ccc(NC(=O)CSc2nnc3ccc(-c4ccncc4)nn23)cc1OC", "Potency": "inconclusive: 22.4 µM [quencher, side channel, partial curve]"},
      {"smiles": "CCCOc1ccc(N2C(=O)CC(N3CCN(c4ccc([N+](=O)[O-])cc4)CC3)C2=O)cc1", "note": "(configuration not stated)", "Potency": "inconclusive: 7.94 µM [quencher, side channel, partial curve]"},
      {"smiles": "Cc1cc(SCCC(=O)O)nc2ccccc12", "activity change, negative = inhibition": "inactive: -6.37%"},
      {"smiles": "CC(C)CCNc1c(-c2cccs2)nc2ccccn12", "Potency": "inconclusive: 14.1 µM [quencher, side channel, partial curve]"},
      {"smiles": "CC(=O)Nc1ccc(N/C=C/C(=O)c2ccc(C)o2)cc1", "Potency": "inconclusive: 14.1 µM [quencher, side channel, partial curve]"},
      {"smiles": "Cc1cc[n+](CC(=O)c2ccccc2)c2ccccc12", "Potency": "inconclusive: 12.6 µM [quencher, side channel, partial curve]"},
      {"smiles": "CCCS(=O)(=O)c1c(S(=O)(=O)CCC)c2ccc(C(N)=O)cn2c1C(=O)c1ccc(F)cc1", "Potency": "inconclusive: 14.1 µM [quencher, side channel, partial curve]"},
      {"smiles": "O=C(Cc1ccccc1)NNc1c2ccccc2nc2ccccc12", "Potency": "inconclusive: 25.1 µM [quencher, side channel, partial curve]"},
      {"smiles": "COc1ccc(CN2C=C3C(=O)C(C)(OC(=O)C4CCCC4)C(=O)C=C3C=C2c2ccsc2)cc1", "note": "(configuration not stated)", "Potency": "inconclusive: 14.1 µM [quencher, side channel, partial curve, poor fit]"},
      {"smiles": "O=C(O)c1ccc(/C=N/Nc2ccc(F)cc2F)cc1", "activity change, negative = inhibition": "inactive: 13.4%"},
      {"smiles": "Cc1occc1-c1nnc(SCc2cc(=O)n3cc(Br)ccc3n2)n1C", "Potency": "inconclusive: 12.6 µM [quencher, side channel, partial curve]"},
      {"smiles": "CC(=O)N1CCN(c2ccc(NC(=O)c3ccc([N+](=O)[O-])o3)cc2Cl)CC1", "Potency": "inconclusive: 7.08 µM [quencher, side channel, partial curve]"},
      {"smiles": "CN1CCN(C2=C(NS(=O)(=O)c3cccs3)C(=O)c3ccccc3C2=O)CC1", "Potency": "inconclusive: 3.55 µM [quencher, side channel, partial curve]"},
      {"smiles": "COc1cc(CNc2nc(C)c([N+](=O)[O-])c(C)c2C#N)cc(OC)c1", "Potency": "inconclusive: 0.631 µM [quencher, side channel, partial curve, poor fit]"},
      {"smiles": "O=C(N/N=C/c1c(O)n(-c2ccc(Cl)cn2)c(=O)c2ccccc12)C1CC1", "Potency": "inconclusive: 31.6 µM [quencher, side channel, single point]"},
      {"smiles": "O=[N+]([O-])c1ccc(Sc2nnnn2-c2ccccc2)c(Cl)c1", "Potency": "inconclusive: 11.2 µM [quencher, side channel, partial curve]"},
      {"smiles": "CN(C)CCCN(C(=O)c1ccco1)c1nc(-c2ccc(Cl)cc2)cs1", "Potency": "inconclusive: 100 µM [inhibitor, single point]"},
      {"smiles": "N=C1SC(CC(=O)Nc2ccccc2[N+](=O)[O-])C(=O)N1c1ccccc1", "note": "(configuration not stated)", "Potency": "inconclusive: 25.1 µM [quencher, side channel, partial curve]"},
      {"smiles": "O=C(Cc1ccccc1)Nc1ccc2c(c1)C(=O)N(CC1CCCO1)C2=O", "note": "(configuration not stated)", "Potency": "inconclusive: 15.8 µM [quencher, side channel, partial curve]"},
      {"smiles": "O=C(c1ccc([N+](=O)[O-])o1)N1CCc2ccccc2C1", "Potency": "inconclusive: 15.8 µM [quencher, side channel, partial curve]"},
      {"smiles": "O=C(N/N=C\\c1c(O)ccc2ccccc12)c1cncc(Br)c1", "activity change, negative = inhibition": "inactive: 3.23%"},
      {"smiles": "CC(=O)Nc1ccc([N+](=O)[O-])c(CS(=O)(=O)c2ccc(C)cc2)c1[N+](=O)[O-]", "Potency": "inconclusive: 12.6 µM [quencher, side channel, partial curve]"},
      {"smiles": "Cc1cc(C)n2nc(C(=O)N/N=C/c3cccc(Cl)c3)nc2n1", "Potency": "inconclusive: 15.8 µM [quencher, side channel, partial curve]"},
      {"smiles": "O=C(NCCN1CCN(C(=O)c2cccc([N+](=O)[O-])c2)CC1)C(=O)NCc1ccc(Cl)cc1", "Potency": "inconclusive: 28.2 µM [quencher, side channel, single point]"},
      {"smiles": "CN1CCN(CCCN2c3ccccc3Sc3ccc(Cl)cc32)CC1", "Potency": "inactive"},
      {"smiles": "O=C(COC(=O)c1cc(Cl)ccc1[N+](=O)[O-])Nc1cccc2ccccc12", "Potency": "inconclusive: 2.82 µM [quencher, side channel, full curve]"},
      {"smiles": "Cc1cc(NC(=O)Cc2csc(-c3ccccc3)n2)ccc1Br", "Potency": "inconclusive: 0.1 µM [fluorescent, side channel, full curve, poor fit]"},
      {"smiles": "CCOC(=O)c1ccc2cccc(C)n2c1=O", "Potency": "inconclusive: 14.1 µM [quencher, side channel, partial curve]"},
      {"smiles": "COc1cccc(-n2c(N)c(-c3nc4ccccc4[nH]3)sc2=S)c1", "activity change, negative = inhibition": "inactive: 11.2%"},
      {"smiles": "C/C(=N\\OCC(=O)Nc1ccccc1C(=O)O)c1cccs1", "Potency": "inconclusive: 79.4 µM [inhibitor, partial curve]"},
      {"smiles": "Cc1cccn2c(=O)c(/C=C(\\C#N)C(N)=O)c(N3CCN(Cc4ccc5c(c4)OCO5)CC3)nc12", "Potency": "inconclusive: 12.6 µM [activator, partial curve, poor fit]"}
    ]}
  ]
}
